We go through 20 molecules from PMC9911399, “Two distinct binding modes provide the RNA-binding protein RbFox with extraordinary sequence specificity”.

Where a chain is given by its changes, count along the chain named. Some of the results follow.

The chains are these.
B1: GCGCGAA (DNA:RNA)
RNA: GGGAGACCGGAAUUCAGAUUGUCCGCGCGAAUUAAAUCCCGUCGUAGCCACCA
DNA 1: CAATCTGAATTCCGGTCTCCC
DNA 2: TGGTGGCTACGACGGGATT
B2: UUGACAU (DNA:RNA)
RNA: B1 RNA with G25U, C26U, C28A, G29C, A31U
DNA 1: CAATCTGAATTCCGGTCTCCC
DNA 2: TGGTGGCTACGACGGGATT
B3: UAAAGUC (DNA:RNA)
RNA: B1 RNA with G25U, C26A, G27A, C28A, A30U, A31C
DNA 1: CAATCTGAATTCCGGTCTCCC
DNA 2: TGGTGGCTACGACGGGATT
B4: UAAACCG (DNA:RNA)
RNA: GGGAGACCGGAAUUCAGAUUGUCCUAAACCGUUAAAUCCCGUCGUAGCCACCA
DNA 1: CAATCTGAATTCCGGTCTCCC
DNA 2: TGGTGGCTACGACGGGATT
B5: AUCGGAU (DNA:RNA)
RNA: B1 RNA with G25A, C26U, G27C, C28G, A31U
DNA 1: CAATCTGAATTCCGGTCTCCC
DNA 2: TGGTGGCTACGACGGGATT
B6: UGACUAC (DNA:RNA)
RNA: B1 RNA with G25U, C26G, G27A, G29U, A31C
DNA 1: CAATCTGAATTCCGGTCTCCC
DNA 2: TGGTGGCTACGACGGGATT
B7: GAUUUGC (DNA:RNA)
RNA: B1 RNA with C26A, G27U, C28U, G29U, A30G, A31C
DNA 1: CAATCTGAATTCCGGTCTCCC
DNA 2: TGGTGGCTACGACGGGATT
B8: GCAACAG (DNA:RNA)
RNA: B4 RNA with U25G, A26C, C30A
DNA 1: CAATCTGAATTCCGGTCTCCC
DNA 2: TGGTGGCTACGACGGGATT
B9: GCGCCCA (DNA:RNA)
RNA: B1 RNA with G29C, A30C
DNA 1: CAATCTGAATTCCGGTCTCCC
DNA 2: TGGTGGCTACGACGGGATT
B10: AUGUACA (DNA:RNA)
RNA: B1 RNA with G25A, C26U, C28U, G29A, A30C
DNA 1: CAATCTGAATTCCGGTCTCCC
DNA 2: TGGTGGCTACGACGGGATT
B11: CGUCCUC (DNA:RNA)
RNA: B1 RNA with G25C, C26G, G27U, G29C, A30U, A31C
DNA 1: CAATCTGAATTCCGGTCTCCC
DNA 2: TGGTGGCTACGACGGGATT
B12: GCAGCUG (DNA:RNA)
RNA: B4 RNA with U25G, A26C, A28G, C30U
DNA 1: CAATCTGAATTCCGGTCTCCC
DNA 2: TGGTGGCTACGACGGGATT
B13: UUCGUCC (DNA:RNA)
RNA: B4 RNA with A26U, A27C, A28G, C29U, G31C
DNA 1: CAATCTGAATTCCGGTCTCCC
DNA 2: TGGTGGCTACGACGGGATT
B14: CAAUAUA (DNA:RNA)
RNA: B4 RNA with U25C, A28U, C29A, C30U, G31A
DNA 1: CAATCTGAATTCCGGTCTCCC
DNA 2: TGGTGGCTACGACGGGATT
B15: CUCAUCU (DNA:RNA)
RNA: B4 RNA with U25C, A26U, A27C, C29U, G31U
DNA 1: CAATCTGAATTCCGGTCTCCC
DNA 2: TGGTGGCTACGACGGGATT
B16: ACUCUGG (DNA:RNA)
RNA: B1 RNA with G25A, G27U, G29U, A30G, A31G
DNA 1: CAATCTGAATTCCGGTCTCCC
DNA 2: TGGTGGCTACGACGGGATT
B17: CGCCUCG (DNA:RNA)
RNA: B4 RNA with U25C, A26G, A27C, A28C, C29U
DNA 1: CAATCTGAATTCCGGTCTCCC
DNA 2: TGGTGGCTACGACGGGATT
B18: CAGAAUU (DNA:RNA)
RNA: B4 RNA with U25C, A27G, C29A, C30U, G31U
DNA 1: CAATCTGAATTCCGGTCTCCC
DNA 2: TGGTGGCTACGACGGGATT
B19: UCACAAG (DNA:RNA)
RNA: B1 RNA with G25U, G27A, G29A, A31G
DNA 1: CAATCTGAATTCCGGTCTCCC
DNA 2: TGGTGGCTACGACGGGATT
B20: GGAUACG (DNA:RNA)
RNA: B4 RNA with U25G, A26G, A28U, C29A
DNA 1: CAATCTGAATTCCGGTCTCCC
DNA 2: TGGTGGCTACGACGGGATT

The assay has as its target T1, RBFOX1 RRM (Homo sapiens, UniProt Q9NWB1 109-208).
T1 sequence: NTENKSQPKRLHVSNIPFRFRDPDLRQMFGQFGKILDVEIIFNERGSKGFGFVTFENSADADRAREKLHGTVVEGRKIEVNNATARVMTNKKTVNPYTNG
Briefly: EMSA; HiTS-Eq, 1 nM pool, 10 min; buffer printed only for the single-RNA assays: 10 mM Tris pH 7.5, 150 mM NaCl, 3.4 mM EDTA, 0.001% NP-40, 30 C. Conditions: tags: His6 N-terminal (pET28a); label: 5' 32P. A digest of the protocol: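 A pool of RNA with 7 randomized nucleotides, 5′-radiolabelled and with DNA-annealed flanks, was equilibrated at 1 nM for 10 min in 50 µL with purified RbFox RRM, wild type or mutant, across increasing protein concentrations. Free RNA was separated by 8% native PAGE, excised, reverse-transcribed, barcoded by PCR and sequenced. Relative association constants were obtained from read-count changes of each RNA species versus the control reaction and normalised to the cognate motif.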
In general terms: A gel shift assay detects complexes by their altered migration in electrophoresis.
As to B1, the binding signal was 0.0104 KA relative to UGCAUGU.
Regarding B2, the binding signal is 0.00701 KA relative to UGCAUGU.
Take B3: the binding signal is 0.00892 KA relative to UGCAUGU.
With B4, the binding signal is 0.00174 KA relative to UGCAUGU.
Regarding B5, the binding signal is 0.0062 KA relative to UGCAUGU.
Regarding B6, the binding signal was 0.0122 KA relative to UGCAUGU.
As for B7, the binding signal is 0.0223 KA relative to UGCAUGU.
Under B8 stands 0.00902 KA relative to UGCAUGU.
With B9, the binding signal was 0.00671 KA relative to UGCAUGU.
Under B10 stands 0.00695 KA relative to UGCAUGU.
B11: the binding signal was 0.00542 KA relative to UGCAUGU.
Take B12: the binding signal is 0.0142 KA relative to UGCAUGU.
Under B13 stands 0.00975 KA relative to UGCAUGU; under B14, 0.000945 KA relative to UGCAUGU.
B15: the binding signal is 0.0034 KA relative to UGCAUGU.
As for B16, the binding signal was 0.0156 KA relative to UGCAUGU.
Under B17 stands 0.00917 KA relative to UGCAUGU.
Regarding B18, the binding signal was 0.00225 KA relative to UGCAUGU.
With B19 the figure was 0.00493 KA relative to UGCAUGU.
Consider B20, for which the binding signal is 0.0133 KA relative to UGCAUGU.
